Source: the supplement of paper PMC4604168 (melanoma cell lines)
The other results are listed elsewhere or left out. Most values come without repeats; read them as rough.

Assays:
Assay in all cases: cell count relative to DMSO control; melanoma cells; higher = more viable cells
Conditions in all cases: library dose: low library concentration; 72 h
[1] = test system: WM115
[2] = test system: WM1716
[3] = test system: WM1745
[4] = test system: WM3526
[5] = test system: WM3619
[6] = test system: WM451Lu
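Also: cell number obtained by counting DAPI-stained nuclei in high-throughput microscope images with image analysis software, screen run in 1,536-well plates.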

Structure (SMILES) | cell count [1] | cell count [2] | cell count [3] | cell count [4] | cell count [5] | cell count [6]
Cc1nc(Nc2ncc(C(=O)Nc3c(C)cccc3Cl)s2)cc(N2CCN(CCO)CC2)n1 [dasatanib] + CC(C)CCN1c2nc(Nc3cc(F)c(O)c(F)c3)ncc2N(C)C(=O)C1C [BID1870] (first compound 0.004 µM, partner dose 0.2 µM) | 79.7% | 76.4% | 72.6% | 70% | 91.4% | 103%
CN(C)S(=O)(=O)c1ccc2c(c1)/C(=C/c1cc3c([nH]1)CCCC3)C(=O)N2 + O=c1cc(-c2cccc3c2Sc2ccccc2S3)oc(N2CCOCC2)c1 [KU55933] (first compound 0.4 µM, partner dose 1 µM) | 93.7% | 131% | 94.9% | 89.7% | 122% | 103%
C=CCn1c(=O)c2cnc(Nc3ccc(N4CCN(C)CC4)cc3)nc2n1-c1cccc(C(C)(C)O)n1 + O=C(Nc1ccccc1)c1cc([N+](=O)[O-])ccc1Cl [GW9662] (first compound 0.02 µM, partner dose 2 µM) | 89.9% | 94.8% | 83.5% | 107% | 59.4% | 119%
CN(C)S(=O)(=O)c1ccc2c(c1)/C(=C/c1cc3c([nH]1)CCCC3)C(=O)N2 + Oc1nc(-c2ccc(C(F)(F)F)cc2)nc2c1CSCC2 [XAV939] (first compound 0.4 µM, partner dose 2 µM) | 79.7% | 83.2% | 92.5% | 73% | 96.5% | 69.7%
NCC(=O)Nc1ccc(-n2nc(C(F)(F)F)cc2-c2ccc3c(ccc4ccccc43)c2)cc1 + COc1cc(N2CCC(N3CCN(C)CC3)CC2)ccc1Nc1ncc(Cl)c(Nc2ccccc2S(=O)(=O)C(C)C)n1 [NVP-TAE684] (first compound 1 µM, partner dose 0.08 µM) | 83.3% | 92.2% | 81.3% | 55.1% | 106% | 53%
CN(C)S(=O)(=O)c1ccc2c(c1)/C(=C/c1cc3c([nH]1)CCCC3)C(=O)N2 + CCCCCCCCCCCC1=C(O)C(=O)C=C(O)C1=O [Embelin] (first compound 0.4 µM, partner dose 1.2 µM) | 81% | 114% | 93.4% | 123% | 111% | 103%
Cc1nc(Nc2ncc(C(=O)Nc3c(C)cccc3Cl)s2)cc(N2CCN(CCO)CC2)n1 [dasatanib] + COc1ccc(COc2ccc(Cc3cnc(N)nc3N)cc2OC)cc1 [GW2580] (first compound 0.004 µM, partner dose 1 µM) | 81.2% | 67.1% | 60.3% | 109% | 104% | 83.7%
CO[C@@H]1[C@H](N(C)C(=O)c2ccccc2)C[C@H]2O[C@]1(C)n1c3ccccc3c3c4c(c5c6ccccc6n2c5c31)C(=O)NC4 [Midostaurin] + COc1cc2c(Oc3ccc4[nH]c(C)cc4c3F)ncnc2cc1OCCCN1CCCC1 [cediranib] (first compound 0.08 µM, partner dose 0.4 µM) | 88.3% | 90.4% | 84.3% | 103% | 107% | 102%
CO[C@@H]1[C@H](N(C)C(=O)c2ccccc2)C[C@H]2O[C@]1(C)n1c3ccccc3c3c4c(c5c6ccccc6n2c5c31)C(=O)NC4 [Midostaurin] + COc1cc2ncnc(Nc3ccc(Oc4ccccc4)cc3)c2cc1OC [SrcI1] (first compound 0.08 µM, partner dose 2 µM) | 87.7% | 50.3% | 65.5% | 97.6% | 93% | 99.6%
NCC(=O)Nc1ccc(-n2nc(C(F)(F)F)cc2-c2ccc3c(ccc4ccccc43)c2)cc1 + CCN(CC)CCCCNc1ncc2cc(-c3cc(OC)cc(OC)c3)c(NC(=O)NC(C)(C)C)nc2n1 [PD173074] (first compound 1 µM, partner dose 0.1 µM) | 88.5% | 106% | 78.1% | 54% | 116% | 47.3%
OCCn1cc(-c2cnc3nnn(Cc4ccc5ncccc5c4)c3n2)cn1 + Cc1cc([N+](=O)[O-])ccc1NS(=O)(=O)c1cc(Cl)ccc1Cl [FH535] (first compound 1 µM, partner dose 1 µM) | 105% | 99.7% | 86.5% | 96.1% | 107% | 75.7%
NC(=O)Nc1cc(-c2cccc(F)c2)sc1C(=O)N[C@H]1CCCNC1 + O=C(Nc1ccccc1)c1cc([N+](=O)[O-])ccc1Cl [GW9662] (first compound 0.02 µM, partner dose 2 µM) | 90.1% | 107% | 108% | 89.1% | 80.3% | 72.4%
C=CCn1c(=O)c2cnc(Nc3ccc(N4CCN(C)CC4)cc3)nc2n1-c1cccc(C(C)(C)O)n1 + CO[C@@H]1[C@H](N(C)C(=O)c2ccccc2)C[C@H]2O[C@]1(C)n1c3ccccc3c3c4c(c5c6ccccc6n2c5c31)C(=O)NC4 [Midostaurin] (first compound 0.02 µM, partner dose 0.08 µM) | 58.6% | 53.7% | 55.9% | 79% | 77.4% | 94.5%
NCC(=O)Nc1ccc(-n2nc(C(F)(F)F)cc2-c2ccc3c(ccc4ccccc43)c2)cc1 + O=C(Nc1ccccc1)c1cc([N+](=O)[O-])ccc1Cl [GW9662] (first compound 1 µM, partner dose 2 µM) | 86.8% | 107% | 92.2% | 41.8% | 91.8% | 56.7%
Cc1nc(Nc2ncc(C(=O)Nc3c(C)cccc3Cl)s2)cc(N2CCN(CCO)CC2)n1 [dasatanib] + CN(C)S(=O)(=O)c1ccc2c(c1)/C(=C/c1cc3c([nH]1)CCCC3)C(=O)N2 [SU6656] (first compound 0.004 µM, partner dose 0.4 µM) | 53.2% | 73.1% | 61.1% | 105% | 93.6% | 67%
NCC(=O)Nc1ccc(-n2nc(C(F)(F)F)cc2-c2ccc3c(ccc4ccccc43)c2)cc1 + COc1cc2ncnc(Nc3ccc(Oc4ccccc4)cc3)c2cc1OC [SrcI1] (first compound 1 µM, partner dose 2 µM) | 94% | 100% | 97.7% | 56.1% | 90.3% | 51.3%
Cc1nc(Nc2ncc(C(=O)Nc3c(C)cccc3Cl)s2)cc(N2CCN(CCO)CC2)n1 [dasatanib] + O=C(CCCCCCC(=O)Nc1ccccc1)NO [vorinostat] (first compound 0.004 µM, partner dose 0.08 µM) | 65.8% | 86.3% | 73.5% | 106% | 84.7% | 49.1%
CO[C@@H]1[C@H](N(C)C(=O)c2ccccc2)C[C@H]2O[C@]1(C)n1c3ccccc3c3c4c(c5c6ccccc6n2c5c31)C(=O)NC4 [Midostaurin] + CN(NC(=O)CC(=O)NN(C)C(=S)c1ccccc1)C(=S)c1ccccc1 [STA4783] (first compound 0.08 µM, partner dose 0.006 µM) | 82.3% | 61.9% | 52.1% | 71.4% | 86.7% | 93.5%
CN(C)S(=O)(=O)c1ccc2c(c1)/C(=C/c1cc3c([nH]1)CCCC3)C(=O)N2 + Cn1cc(/C=C2\C(=O)Nc3cccnc32)c2ccccc21 [GW441756] (first compound 0.4 µM, partner dose 0.4 µM) | 82.5% | 113% | 108% | 113% | 124% | 115%
CN(C)S(=O)(=O)c1ccc2c(c1)/C(=C/c1cc3c([nH]1)CCCC3)C(=O)N2 + CCN(CC)CCCCNc1ncc2cc(-c3cc(OC)cc(OC)c3)c(NC(=O)NC(C)(C)C)nc2n1 [PD173074] (first compound 0.4 µM, partner dose 0.1 µM) | 75.1% | 114% | 90.3% | 111% | 126% | 71.2%
CO[C@@H]1[C@H](N(C)C(=O)c2ccccc2)C[C@H]2O[C@]1(C)n1c3ccccc3c3c4c(c5c6ccccc6n2c5c31)C(=O)NC4 [Midostaurin] + O=C(Nc1cccc(Cl)c1)Nc1ncc(CCNc2ncnc3ccsc23)s1 [SNS314] (first compound 0.08 µM, partner dose 0.0008 µM) | 50.6% | 62.9% | 40.5% | 88% | 77.8% | 98.8%
NC(=O)Nc1cc(-c2cccc(F)c2)sc1C(=O)N[C@H]1CCCNC1 + CCN(CC)CCCCNc1ncc2cc(-c3cc(OC)cc(OC)c3)c(NC(=O)NC(C)(C)C)nc2n1 [PD173074] (first compound 0.02 µM, partner dose 0.1 µM) | 99.9% | 91.1% | 97.4% | 67.5% | 23.2% | 93.5%
Cc1nc(Nc2ncc(C(=O)Nc3c(C)cccc3Cl)s2)cc(N2CCN(CCO)CC2)n1 [dasatanib] + COc1cc2c(Oc3ccc4[nH]c(C)cc4c3F)ncnc2cc1OCCCN1CCCC1 [cediranib] (first compound 0.004 µM, partner dose 0.4 µM) | 66.7% | 57.2% | 70.6% | 79.4% | 93.6% | 61.3%
C[C@]1(c2nc3c(C(N)=O)cccc3[nH]2)CCCN1 [Veliparib] + CCc1ccc(CCOc2ccc(CC3SC(=O)NC3=O)cc2)nc1 [pioglitazone] (first compound 1.4 µM, partner dose 2 µM) | 79.9% | 81.8% | 79.9% | 99.1% | 81.3% | 106%
NC(=O)Nc1cc(-c2cccc(F)c2)sc1C(=O)N[C@H]1CCCNC1 + COc1ccc(COc2ccc(Cc3cnc(N)nc3N)cc2OC)cc1 [GW2580] (first compound 0.02 µM, partner dose 1 µM) | 96.2% | 87.7% | 89.5% | 78.4% | 55.7% | 96.3%
NC(=O)Nc1cc(-c2cccc(F)c2)sc1C(=O)N[C@H]1CCCNC1 + N#Cc1c(O)c2c(-c3ccc(-c4ccccc4O)cc3)csc2[nH]c1=O [A769662] (first compound 0.02 µM, partner dose 2 µM) | 86% | 90.3% | 85.5% | 81.3% | 50.8% | 91%
